# Experimental data as given in PubChem BioAssay AID686978 (National Center for Advancing Translational Sciences (NCATS), 2013).
# The whole screen tested about 420,000 compounds, of which about 64,000 (15%) were called active. The inconclusive results got no clear call from the source; some entries with a clear call stand among them for comparison. The call rests on the fitted dose curve; in most records, active means well fitted inhibition curve with a large enough effect; inconclusive means small, poorly fitted or top-dose-only effect; inactive means flat fitted curve, though single readings scatter. No potency is given beside an inconclusive call; the fits are too rough.
# Test: qHTS for Inhibitors of human tyrosyl-DNA phosphodiesterase 1 (TDP1): qHTS in cells in absence of CPT; further: nearly all actives have a fitted effect of over 55% in size
# Details: DT40 Tdp1-/- hTDP1 cells, no CPT, ATP luminescence, 48 h; activity change, negative = growth inhibition: at 46.2 µM (top of the series) unless noted
# In short: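 A cellular qHTS used chicken DT40 cells lacking endogenous Tdp1 but carrying stably transfected human TDP1. Compounds were applied without camptothecin, and cell growth kinetics were judged by ATP-dependent luminescence after ≥48 hr.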
# On the % scale 0 is the no-effect control and ±100 the full control effect; potency means the concentration at half of the fitted maximal effect; tags describe the fitted curve by direction and shape.
SMILES,Potency,"activity change, negative = growth inhibition"
Cc1ccc(C(C)C)cc1OCC(=O)Nc1ccc(N2CCCCC2)cc1,"inconclusive [inhibitor, single point]",
CN(C)c1ccc(CC(=O)N2CCCCC2c2cc(C(=O)Nc3cccc4c3CCCC4)no2)cc1 (stereo not drawn),"inconclusive [inhibitor, single point]",
COc1ccc(C(=O)c2ccc(Cl)cc2)c2ccccc12,"inconclusive [inhibitor, partial curve]",
O=C(N/N=C/c1ccccc1Cl)c1nc2ccc([N+](=O)[O-])cc2c(=O)[nH]1,"inconclusive [inhibitor, single point]",
O=C(CNC(=O)c1ccc(Br)o1)NNC(=O)COc1ccccc1Cl,inactive,
CCn1c(SCC(=O)NC2=NCCS2)nnc1C(C)NC(=O)c1ccccc1Br (stereo not drawn),inactive,
Cc1cccc(NNC(N)=S)c1,"inconclusive [inhibitor, single point]",
Cc1cccc(N2CCN(C(=O)c3cc4n(n3)C(C(F)(F)F)CC(c3ccco3)N4)CC2)c1C (stereo not drawn),active: 14.6 µM,
COc1cc(-c2nc3cc(C)ccn3c2NC2CCCCC2)ccc1-c1ccc(C(C)=O)cc1,active: 7.31 µM,
Cc1ccccc1NC(=O)CSc1nc2ccc(NC(=O)c3ccccc3)cc2s1,active: 16.4 µM,
CCOc1ccccc1-n1c(SCC(=O)Nc2ccc(CC)cc2)nc2n[nH]c(C)c2c1=N,active: 13 µM,
O=C1NC(=O)/C(=C\c2ccc(Cl)nc2)S1,"inconclusive [inhibitor, single point]",
Cc1ccc(-c2nc3c(c(=O)[nH]c(=O)n3Cc3ccccc3)n2Cc2ccccc2)o1,"inconclusive [inhibitor, single point]",
C[C@@H]1O[C@H](C2CCCC2)Cc2[nH]c(=S)[nH]c(=O)c21,inactive,
COc1ccc(-n2nc3c(c2NC(=O)c2ccc(S(=O)(=O)N4CCOCC4)cc2)CS(=O)C3)cc1 (stereo not drawn),inactive,
c1ccc(CCC2CCCCN2Cc2cn[nH]c2-c2cc3ccccc3o2)nc1 (stereo not drawn),"inconclusive [inhibitor, single point]",
CC(C)(C)c1nnc2cccc(Cl)n12,inactive,
CC1CCC(Nc2ncnc3onc(-c4ccc(Cl)cc4)c23)CC1 (stereo not drawn),"inconclusive [inhibitor, partial curve]",
CC(=O)N(CCC(Cc1ccccc1)c1ccc2c(c1)OCO2)Cc1ccccc1F (stereo not drawn),"inconclusive [inhibitor, single point]",
COc1ccc(OC)c(CCNC(=O)c2ccccc2NC(=O)C2=C(C)OCCS2)c1,"inconclusive [inhibitor, partial curve]",
Cc1cc(NC(=O)CSc2nc(N)c(NC(=O)c3ccccc3)c(=O)[nH]2)no1,inactive,
CC(C)(C)c1ccc2c(c1)N(CC(=O)N1CCCC1)C(=O)CO2,inactive,
CN(Cc1ccccc1)C(=O)c1[nH]cnc1C(=O)Nc1ccc(Br)cc1F,"inconclusive [inhibitor, single point]",
C/C=C(\C)C(=O)N[C@@H](C)CN1C2=NC[C@H](C(C)C)N2C[C@H]1Cc1ccc(OC)cc1,inactive,
O=C(Nc1ccc2ccccc2c1)c1ccc(Cl)cc1Cl,"inconclusive [inhibitor, single point]",

SMILES,Potency,"activity change, negative = growth inhibition"
CC(=O)OCc1cnc(C)c2oc(=O)c(C(=O)Nc3ccc(C)cc3Cl)cc12,inactive,
COC(=O)C(Cc1cnc(Cl)s1)(C(=O)OC)c1ccc([N+](=O)[O-])cc1[N+](=O)[O-],"inconclusive [inhibitor, single point]",
Cc1ccccc1CN1C(=O)C(O)(CC(=O)c2ccccc2)c2cc(Cl)ccc21 (stereo not drawn),"inconclusive [inhibitor, single point]",
Cc1ccc(C)c(S(=O)(=O)N2CCN(C(=O)c3cccnc3)CC2)c1,inactive,
Cn1c(SCC(=O)NCC2CCCO2)nnc1-c1ccco1 (stereo not drawn),inactive,
CCOc1ccc(N2C(=O)C(c3ccccc3)=C(c3nc4ccccc4s3)C2NC(C)=O)cc1 (stereo not drawn),active: 16.4 µM,
CNC(=O)c1cc(-c2ccc(Cl)cc2)n(-c2ccccc2)n1,,inconclusive: -30.7% [inhibitor]
COc1cc2nc(Nc3ccc(C)c(Cl)c3)nc(N)c2cc1OC,"inconclusive [inhibitor, single point]",
O[C@H]1C[C@H](c2ccc(Cl)cc2)N(CC2CCCCC2)C[C@@H]1n1cc(-c2ccc(F)cc2)nn1,"inconclusive [inhibitor, single point]",
COc1cc(C(=O)Nc2nc(C)c(Cc3ccc4c(c3)OCO4)s2)cc(OC)c1OC,active: 2.06 µM,
CC(C)c1nc(-c2ccc([N+](=O)[O-])cc2)cs1,"inconclusive [inhibitor, partial curve]",
CC(C#N)(Nc1ccc(Cl)cc1)c1cccnc1 (stereo not drawn),inactive,
CNC(=S)Nc1cc(S(=O)(=O)Nc2cc(Cl)ccc2Cl)ccc1N1CCCC1,,inconclusive: -32.4% [inhibitor]
Cc1cc(C)cc(C(=O)Nc2ccc(N3CCN(S(C)(=O)=O)CC3)cc2)c1,"inconclusive [inhibitor, partial curve, poor fit]",
Cc1ccc(NC2CCCN(C(=O)c3cn(C)c4ccccc34)C2)cc1C (stereo not drawn),"inconclusive [inhibitor, single point]",
Cc1ccc(F)cc1NC(=O)c1ccc(NS(=O)(=O)c2ccc(Br)s2)cc1,inactive,
COc1ccc(NC(=O)N2CC[C@@]3(CCCNC3)C2)cc1,inactive,
O=[N+]([O-])c1ccc(NCCCc2ccccc2)cc1,active: 18.4 µM,
O=C(CN1C(=O)S/C(=C\C=C\c2ccccc2)C1=O)Nc1ccc(O)cc1,"inconclusive [inhibitor, single point]",
CCn1c(SCc2nc(-c3ccccc3)no2)nc2ccccc21,"inconclusive [inhibitor, single point]",
NC(=S)N/N=C1\CCOc2ccc(Cl)cc21,"inconclusive [inhibitor, partial curve]",
O=C(Nc1ncc(S(=O)(=O)c2ccc([N+](=O)[O-])cc2)s1)c1cccc2ccccc12,active: 20.6 µM,
CCn1c(SCC(=O)c2ccc(O)c(O)c2)nnc1-c1ccc(C)cc1,"inconclusive [inhibitor, single point]",
COc1ccc(CNC(=O)[C@H](C)NC(=O)C2CCN(C(=O)[C@H](CCSC)NC(=O)OC(C)(C)C)CC2)cc1,"inconclusive [inhibitor, single point]",
COc1cccc(Nc2cc(C)c3ccccc3n2)c1,,inconclusive: -32% [inhibitor]

SMILES,Potency,"activity change, negative = growth inhibition"
CC(C)(C)NC(=O)Nc1nnc(SCC(=O)NC2CCCCC2)s1,"inconclusive [inhibitor, single point]",
CC(OC(=O)c1ccc(=O)n(Cc2ccccc2)n1)C(=O)Nc1cccc(Cl)c1 (stereo not drawn),inactive,
Cc1ccc(NS(=O)(=O)c2cccc(C(=O)NC3CCN(Cc4ccccc4)CC3)c2)c(C)c1,"inconclusive [inhibitor, full curve]",
O=C(NNC(=O)c1ccc(Cl)nc1)c1ccncc1,inactive,
COC(=O)c1[nH]c2ccc(C)cc2c1NC(=O)Oc1ccccc1,inactive,
COc1ccc(S(=O)(=O)NC(C)C(=O)NCc2ccncc2)cc1Cl (stereo not drawn),inactive,
CC(C)(CNC(=O)CNC(=O)c1ccccc1F)N1CCOCC1,inactive,
CCOC(=O)C1(C)CCN1C(=O)c1cc(F)cc(F)c1 (stereo not drawn),inactive,
CCc1ccc(/C(C)=N/NC(=O)c2ccccn2)cc1,inactive,
COc1ccc(CCNC(=O)CCC(=O)N2CCOc3ccc(C)cc32)cc1OC,,inconclusive: -33.4% [inhibitor]
Cc1ccc(C)c(OCCC(=O)NCCc2ccc(F)cc2)c1,"inconclusive [inhibitor, single point]",
O=C1CN(C(=O)C2CCCC2)CCN1,"inconclusive [inhibitor, full curve, poor fit]",
Cc1ccc(CNC(=O)c2oc3ccc(S(=O)(=O)N4CCC(C)CC4)cc3c2C)cc1,active: 16.4 µM,
Cc1cccc(OCC(=O)Nc2ccc3nc(Nc4cccc(C(F)(F)F)c4)cc(C)c3c2)c1,active: 13 µM,
COc1ccc(C(C)=O)cc1CSc1nc2ccccc2c(=O)n1-c1ccccc1,,inconclusive: -35.6% [inhibitor]
Cc1cc(C(=O)CN2C(=O)NC3(CCCCC3)C2=O)c(C)n1-c1ccc2c(c1)OCO2,active: 20.6 µM,
CCCCN1C(=O)CN(C2CCCCCC2)C(=O)C1c1ccc(OC(C)C)c(OC)c1 (stereo not drawn),"inconclusive [inhibitor, single point]",
O=C(NCCCn1ccnc1)c1cc(-c2ccc3c(c2)OCO3)on1,inactive,
CCc1nc2c(OCCOc3ccc(F)cc3)cccn2c1N(C)C(=O)c1ccco1,active: 16.4 µM,
COc1ccccc1-c1ccc2c(c1)C(C)(Cc1ccc(OC(F)(F)F)cc1)C(=O)N2 (stereo not drawn),"inconclusive [inhibitor, single point]",
O=C(/C=C/c1ccc[nH]1)c1ccccc1,"inconclusive [inhibitor, single point]",
O=C(C[n+]1cccc(Br)c1)c1ccc2c(c1)CCCC2,"inconclusive [inhibitor, single point]",
COCCCNC(=O)c1c(N)n(-c2ccc3c(c2)OCO3)c2nc3ccccc3nc12,"inconclusive [inhibitor, partial curve]",
